Data on 167 variants can be found in the RNAGym collection of RNA variant scans (doi:10.7554/elife.90254).

Read counts are not given, so values of variants with three or more changes are uncertain.

To fix the notation:
B1: LINE1-full (parent)
chain: UACGUAGGUGGUUUUCCCCUGAUAGUGCUAAGGGGGCCUGGAAGUUUGGACUGGGCAGAGCUCAACACAGCGUGGCAAAGUGGCUGUGGCUAGACUGCCUCUCUGGAUUCCUCGUCACUCAGCAGGGCAUCUCUGAGAGAAAUGCC

The series covers variants of B1. The series is described as follows: self-cleavage, relative activity (ratio to wild type); higher = more cleavage; in vitro, sequencing; the parent is a self-cleaving ribozyme.
Regarding U9C A22G A42G, the self-cleavage was found to be 0.

Regarding U9C U12G U15C G21A G33A C38U A77G U100C, the self-cleavage came to 1.71.

As to U9C A30G A78G G122A A140C, the self-cleavage came to 2.26.

G7U U26C U45C U102C C118U: the self-cleavage amounted to 1.67.

In the case of U9A U29A U46A A77U A79G G97A A107G, the self-cleavage came to 0.04.

On to U9C U26C U134C, for which the self-cleavage came to 0.59.

Regarding G8U A69G U109C, the self-cleavage worked out at 0.

On to U9C A124U U134A, for which the self-cleavage came out at 1.2.

As for U9C U13C U108A A121G, the self-cleavage was found to be 1.08.

Consider U9C U52A A79U, for which the self-cleavage was found to be 1.56.

For the variant U9A U15C A141G, the self-cleavage turned out to be 0.86.

In the case of G8C U14C C28A, the self-cleavage was 0.6.

With U9C A117G A142G, the self-cleavage came out at 0.

With U9A U12C U23C, the self-cleavage was 1.23.

Take U9A U12C U23C U46A: the self-cleavage was 2.12.

U9C A59U U62C A69G G82A C131U A136G: the self-cleavage was determined as 0.08.

U9C A43G A64U: the self-cleavage amounted to 0.55.

As for U9A U62C U132A, the self-cleavage is 0.16.

Turning to U9C G35U G55A U85C, the self-cleavage was determined as 0.15.

As to U9C U39G A43U A78G, the self-cleavage was 1.04.

U9C U15C U104C A142G: the self-cleavage was 0.

Consider U9A U46C U73C A94G G127U, for which the self-cleavage is 0.

As for U9C A43G U102A U108C U119C, the self-cleavage came to 0.

As to U9A U47A A129G A140G, the self-cleavage is 1.07.

As to U9C U47C C131U A138G, the self-cleavage came out at 1.45.

With U9C A42U U52A U73A A129G, the self-cleavage was determined as 1.52.

Consider U9A U12C U104A, for which the self-cleavage amounted to 0.84.

For U9A A79G U100G A124U, the self-cleavage stood at 0.

U9A U26C U47C C63U A117G: the self-cleavage is 0.31.

For U9C U46A A50G C99U A121G U143A, the self-cleavage was found to be 1.23.

Take U9C U14C U52C G75A: the self-cleavage amounted to 1.24.

U9C U29C U62C A69G A140U: the self-cleavage stood at 0.

For the variant U9A U45C U143A, the self-cleavage was found to be 0.67.

As to U9A U14C U81A U87C U115A U134C, the self-cleavage worked out at 0.66.

For U9A C19A U29C A59G A77U, the self-cleavage was 0.24.

Regarding U9C A30U A64G U109C, the self-cleavage stood at 0.22.

Consider U9A U47C A57C U130A, for which the self-cleavage is 0.18.

As to U9C A22U C63U A67G U134A, the self-cleavage was 0.28.

Take U9C G55C U130C A141G: the self-cleavage was found to be 0.27.

Take U9C A24U A65G: the self-cleavage turned out to be 0.

Regarding U9A U47C U100A U134C, the self-cleavage is 0.82.

Consider U9A U73C A140G, for which the self-cleavage amounted to 0.44.

As to U9A U29A G97A, the self-cleavage amounted to 0.2.

Regarding U9C U15C A42G U81C U132C, the self-cleavage came to 0.

Regarding U9A U20C U73A U130C, the self-cleavage was determined as 1.61.

As to U9C U47A A65U, the self-cleavage came out at 0.17.

Take U9C C133A A138G: the self-cleavage is 1.03.

For U9A U13C U96C, the self-cleavage was determined as 0.41.

Take U9C U45A A59U: the self-cleavage was 0.38.

For the variant U9C A22U A107G, the self-cleavage amounted to 1.84.

For U9C A30U U85C, the self-cleavage was 0.32.

On to U9C U20C G25U, for which the self-cleavage came to 1.34.

On to U9C A64G A121U, for which the self-cleavage was determined as 0.18.

For U9A A22G U73C U85A U130C, the self-cleavage came out at 0.6.

U9A U143A C145U: the self-cleavage was 0.9.

As for U9C A57U U108C, the self-cleavage stood at 0.59.

With U9C U47C A50U U52C U91A, the self-cleavage was determined as 1.02.

Take U9C U15A U47A A121U: the self-cleavage came to 0.72.

For the variant U9A G53A A78G C118U, the self-cleavage was determined as 1.46.

With U9A U20C U39C U115A U119C, the self-cleavage came to 0.95.

For U9C U45C U108C C113A A136G, the self-cleavage came out at 1.15.

Consider U9C U45C A57C U62C U143C, for which the self-cleavage amounted to 0.

On to U9A U26C U46C C61A A141G, for which the self-cleavage came out at 0.11.

On to U9A U12C U45A A94U A142G, for which the self-cleavage is 0.84.

With U9C A117U A142G, the self-cleavage came out at 1.26.

In the case of U9C A65U U112A A141G, the self-cleavage worked out at 0.32.

U9A A59G U115A G122U: the self-cleavage came out at 0.15.

Take U9A U73C A141G: the self-cleavage stood at 0.97.

For the variant U9C U13C U45G A136G, the self-cleavage is 1.28.

In the case of U9A U15A A57U U134A A141G, the self-cleavage turned out to be 0.5.

Take U9C G137A A138G A141C: the self-cleavage was 1.44.

As to U9A C37U U109C A129U, the self-cleavage turned out to be 1.32.

For U9A A22G C71U, the self-cleavage worked out at 0.8.

Turning to U9C A43U U45G, the self-cleavage worked out at 1.3.

Regarding U9A A43G A141G, the self-cleavage was 1.15.

With U9C G27A U87C, the self-cleavage came out at 0.

For U9C A64U A92G U100C, the self-cleavage worked out at 0.64.

In the case of U9C U12C U85C, the self-cleavage amounted to 0.

Take U9A A78G U91A: the self-cleavage is 0.48.

Regarding G7U U39C A78G A117G, the self-cleavage was determined as 0.42.

U9C U20G U73A A78G U119C U143C: the self-cleavage was 1.15.

Regarding U9C C16U U26A G35U U47A G72U G74U U112C, the self-cleavage stood at 0.07.

With G8A A42G A79G A124G, the self-cleavage was determined as 1.06.

For U9A U47C A59G, the self-cleavage was found to be 0.

In the case of U9A U13C A129G, the self-cleavage worked out at 1.6.

G7U U20A G83A U87C C113A A129G: the self-cleavage stood at 0.1.

In the case of U9C C133A U134C, the self-cleavage worked out at 1.21.

Regarding U9A A42U U91C A138G, the self-cleavage was 0.33.

On to U9C U62A A69G A124G, for which the self-cleavage is 0.

As for G8A U29A A124G, the self-cleavage was 0.86.

On to U9A U15C U52C U115A, for which the self-cleavage came out at 1.41.

In the case of U9C A42G A64U A94G C131U, the self-cleavage was 0.25.

In the case of G8U A57G U134C, the self-cleavage was found to be 1.19.

Take G8A C19U U46A A57U: the self-cleavage turned out to be 0.12.

For the variant U9C A31U U45C U73A U81C U119C, the self-cleavage amounted to 0.48.

Consider U9A U14C U45C U81A U96G A124U U132A A140U, for which the self-cleavage was found to be 0.55.

Regarding U9C U13A A24G, the self-cleavage worked out at 1.18.

As to U9C A69G A78G U104C, the self-cleavage turned out to be 0.66.

As for G8A U47A G72U G82A A94G, the self-cleavage is 0.26.

Turning to U9C U14C G35A, the self-cleavage worked out at 1.24.

For U9A C16U A22G G27A U29C A92U A117G A138G, the self-cleavage was 2.63.

As to U9C A31U U47A A77G U102C U108C, the self-cleavage came out at 1.84.

U9C U13A A31U C63A: the self-cleavage stood at 0.11.

With U9A C51U U104C A142G, the self-cleavage worked out at 1.47.

On to U9C A117U A124U A142G, for which the self-cleavage came to 0.

Take U9A A140G A141U: the self-cleavage is 1.12.

In the case of U9A U13C A43U A50U U108C, the self-cleavage was 0.99.

With U9A U12C U14A, the self-cleavage was found to be 0.59.

For the variant U9C A78G U112A, the self-cleavage stood at 0.87.

Take U9C U20C U26C A31G A124U: the self-cleavage was 0.84.

Consider U9A A24U G97A, for which the self-cleavage worked out at 0.23.

Consider U9A U26C A78G, for which the self-cleavage came out at 1.06.

Regarding G8A A78G U104C U132C, the self-cleavage is 1.65.

Consider U9C U39A U52A, for which the self-cleavage turned out to be 0.92.

Take G7U U9C U73C: the self-cleavage was 2.13.

For the variant U9A A121C A140G, the self-cleavage stood at 0.

G8U U45C U73A: the self-cleavage is 1.31.

Consider U9A A129U A142G, for which the self-cleavage is 2.3.

Regarding U9A A78G U81C U96A, the self-cleavage was determined as 0.09.

Turning to U9A U12C U100A A141U, the self-cleavage was determined as 0.78.

For the variant U9C U26G G44A C118U G126A A140G, the self-cleavage is 1.14.

For U9A U81A U96A U108C A142G, the self-cleavage worked out at 0.04.

For U9C A31G U47A, the self-cleavage came out at 1.53.

In the case of U9C A94G U100A, the self-cleavage turned out to be 0.61.

Consider U9C U20G U47C U130C, for which the self-cleavage amounted to 0.

Turning to G8A U46C U52G U62A U87C U96A, the self-cleavage stood at 0.

In the case of G7U U13A U39C A69G C90A G122A, the self-cleavage is 0.07.

Regarding U9C A22U A31G U62A U81C U134A, the self-cleavage is 0.61.

Turning to U9C U23A A50U A79G, the self-cleavage is 0.48.

Consider U9C A50U G53A A65G G70A U108C G127A, for which the self-cleavage amounted to 0.04.

U9C A24G U39C U109C C116U U130C: the self-cleavage stood at 1.22.

In the case of U9C U20C U26C A136C, the self-cleavage came out at 2.14.

U9C U15C A59G U109A U112C U119A: the self-cleavage amounted to 0.

For the variant U9C U13C A121G, the self-cleavage amounted to 0.94.

Turning to U9C U14C A121G A142G, the self-cleavage stood at 1.02.

In the case of U9C G54A G144A, the self-cleavage came out at 0.78.

In the case of G7U U9A U14C C116A, the self-cleavage was 0.33.

With G8U A43G C76U U96A, the self-cleavage was 0.14.

U9C C19U U132A: the self-cleavage is 1.39.

In the case of U9C U12G A94G, the self-cleavage was found to be 0.54.

Consider U9A C16U U45C, for which the self-cleavage is 0.39.

U9C C19U A24U: the self-cleavage came out at 1.05.

On to U9A A69G U119C A140G, for which the self-cleavage is 0.

As to U9C A31U U85A U102C U108A U109C, the self-cleavage stood at 0.

Consider U9C A77C C113A A140G, for which the self-cleavage turned out to be 0.85.

For U9C U39C U81A U109C A124G, the self-cleavage was 1.31.

As for U9A U13C A50G A141G, the self-cleavage stood at 1.53.

For the variant U9A A30G U132A, the self-cleavage was found to be 0.75.

Regarding U9C U23C U46C A65U U91A U115C, the self-cleavage was determined as 0.

Turning to U9C A69G U100C, the self-cleavage amounted to 0.46.

U9A A57G A67G: the self-cleavage was 0.65.

Take U9A U20A U45C: the self-cleavage is 1.24.

U9A U14C U39C U85A: the self-cleavage stood at 0.23.

In the case of U9C U13C G41A C68A U115A, the self-cleavage was 0.13.

For U9A G34A U108C, the self-cleavage is 1.4.

Consider U9C A42U U62A U104C, for which the self-cleavage was determined as 0.

Take U9A A64U U143A: the self-cleavage amounted to 0.53.

As to G8A U39A A69U U102A G126U A129U U134A, the self-cleavage came to 0.04.

For the variant G8A A78G U119C, the self-cleavage was 1.38.

On to U9C A94G U104C, for which the self-cleavage was 0.4.

As to U9A U52C U102G, the self-cleavage worked out at 0.

With U9C U39C A92C, the self-cleavage came to 1.25.

U9A U14C G21A A30U U52C U81A: the self-cleavage amounted to 0.77.

In the case of U9C A31U U52C, the self-cleavage amounted to 0.38.

As to U9C U15A A24U, the self-cleavage was 0.72.

For the variant U9C G49U C61U A69G U108C, the self-cleavage was 0.03.

Take U9A U14C U20C C123U: the self-cleavage amounted to 0.96.
